Measured values taken from PubChem BioAssay AID624202 (National Center for Advancing Translational Sciences (NCATS), 2012).
Screen size: about 380,000 compounds; about 4,000 (1.1%) were called active. Inconclusive means that the source gave no clear call. Such entries were picked first, then a sample of the others. Calls come from the whole dose curve; as a rule, active = well fitted activation curve with a large enough effect; inconclusive = small, poorly fitted or top-dose-only effect; inactive = no such curve, though single readings can be large or run the other way. Potencies beside an inconclusive call are fits to weak or partial responses and may not hold up.

Experiment: qHTS Assay to Identify Small Molecule Activators of BRCA1 Expression; note: nearly all actives have a fitted effect of over 80% in size
Settings: MCF7-BRCA1-FFLuc reporter, luminescence, 48 h; activation: at 46.1 µM (top of the series), scaled: vehicle 0%, 10 µM genistein 100% unless noted
How it was run: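 Cells: MCF7-BRCA1-FFLuc, 2000/well. Exposure: 48 h, 37 °C, 5% CO2. Read: luminescence, 15 min post-substrate. Controls: genistein 10 microM (maximal activation), DMSO (neutral).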
Potency is the fitted concentration of half-maximal effect; tags give direction and shape of the fitted curve.

| SMILES | Potency | activation |
| --- | --- | --- |
| Cc1ccccc1C(=O)NNC(=S)NC(=O)c1cccs1 | inactive |  |
| Cc1[nH]n(-c2cccc(Cl)c2)c(=O)c1C=NCC(C)C | active: 10 µM |  |
| O=C(N/N=C/C(Cl)=C/c1ccccc1)c1ccccn1 | inconclusive: 2.51 µM [activator, full curve, poor fit] |  |
| COc1ccc(Nc2oc(-c3ccc(OC)cc3)nc2C#N)cc1 | inconclusive: 25.1 µM [activator, single point] |  |
| COCC(=O)Nc1nc(-c2ccc(-c3ccccc3)cc2)cs1 | inconclusive: 2 µM [activator, partial curve, poor fit] |  |
| O=C(Nc1ccc2ccccc2c1)c1cccnc1 | inconclusive: 35.5 µM [activator, single point] |  |
| Cc1ccc2c(c1)N(CCC(=O)NCc1ccccn1)C(=O)CO2 | inactive |  |
| C/C(=C\C(=O)c1ccccc1)Nc1ccc2c(c1)OCO2 | active: 7.94 µM |  |
| O=C(/C=C/c1ccccc1Cl)NCCc1ccccc1 | active: 11.2 µM |  |
| Cc1cc2nc(N)sc2cc1C | inconclusive: 2.51 µM [activator, full curve, poor fit] |  |
| Cc1cccc2[nH]c(-c3ccc(NC(=O)c4ccco4)cc3)nc12 | active: 1.78 µM |  |
| CC/C(=N\NC(=O)c1csc(C)c1C)c1cccs1 | inconclusive: 17.8 µM [activator, partial curve, poor fit] |  |
| COc1ccc(-c2noc(-c3ccc(C)cc3)n2)cc1 | inconclusive: 2.24 µM [activator, full curve, poor fit] |  |
| Cc1nc(NC(=O)c2oc3ccccc3c2C)sc1C(=O)N(C)C | active: 12.6 µM |  |
| COC(=O)c1cc(/C=C/c2ccccc2)[nH]n1 | inconclusive: 15.8 µM [activator, partial curve, poor fit] |  |
| CCOc1ccc(/C=N/NC(=O)c2ccoc2C)cc1OC | active: 10 µM |  |
| COc1cc(C=O)ccc1OCCOc1ccccc1[N+](=O)[O-] | inconclusive: 10 µM [activator, single point] |  |
| COc1ccc(-c2cc3c(=O)n(CC(=O)NCCCN4CCN(Cc5ccccc5)CC4)ncn3n2)cc1 | inconclusive: 1.26 µM [activator, partial curve, poor fit] |  |
| O=C(NCCC(=O)N1CCc2ccccc21)c1ccco1 | active: 8.91 µM |  |
| Cc1ccc(C(=O)Nc2ccc(C(=O)O)cc2NC(=O)c2ccc(C)cc2)cc1 | inactive |  |
| CCCN1/C(=C2/SC(=S)N(CC)C2=O)C=Cc2ccccc21 | inactive |  |
| N=c1oc2cc(O)ccc2cc1C(=O)Nc1ccc(Cl)cc1 | inconclusive: 2.82 µM [activator, full curve, poor fit] |  |
| N/C(=N\N=C\c1ccc(O)cc1)c1nonc1N | inconclusive: 2.51 µM [activator, full curve, poor fit] |  |
| O=C(Cc1ccccc1F)Nc1ccccc1-c1ccccc1 | inconclusive: 7.94 µM [activator, partial curve, poor fit] |  |

| SMILES | Potency | activation |
| --- | --- | --- |
| C=CCOc1cccc(/C=C/c2nc3ccccc3c(=O)[nH]2)c1 | inconclusive: 2.51 µM [activator, full curve, poor fit] |  |
| CNc1ccc(-c2cccc(CO)c2)cn1 | inconclusive: 2.51 µM [activator, partial curve, poor fit] |  |
| CN(C)c1ccc(Nc2cc(Cl)ncn2)cc1 | inconclusive: 22.4 µM [activator, single point] |  |
| Cc1ccccc1OCC(O)Cn1c(SC(C)C)nc2c1c(=O)[nH]c(=O)n2C (configuration not stated) | inactive |  |
| COC(=O)c1ccc(C)c(NS(=O)(=O)c2ccc(OC)cc2)c1 |  | inconclusive: -90.2% [activator] |
| CCCC(=O)Nc1nc(-c2ccc(OC)cc2)cs1 | inconclusive: 2.82 µM [activator, partial curve, poor fit] |  |
| O=C1/C(=C\c2ccco2)SC(=S)N1c1ccc(O)cc1 | inactive |  |
| O=C(/C=C/c1ccc(-c2ccc(F)cc2)o1)N1CCCC1 | active: 3.98 µM |  |
| CN(C)c1ccc(/C=N\Nc2ccccn2)cc1 | inconclusive: 2.24 µM [activator, full curve, poor fit] |  |
| Fc1ccc(-c2nc3ccccc3[nH]2)cc1 | inconclusive: 3.98 µM [activator, partial curve, poor fit] |  |
| CC(C)C(=O)NNc1nc2ccccc2s1 | active: 8.91 µM |  |
| C/C(=N\Nc1ccc(C(=O)O)cc1)c1ccc(Br)cc1 |  | inconclusive: -50.3% [activator] |
| O=C(CSC(=S)N1CCCCC1)N1N=CCC1c1ccccc1 (configuration not stated) | inconclusive: 15.8 µM [activator, single point] |  |
| Cc1ccc(-n2cc(C(=O)c3ccc(F)cc3)nn2)cc1Cl | inconclusive: 1 µM [activator, full curve, poor fit] |  |
| Fc1ccc2cc(CCO[C@H]3CCCCO3)ncc2c1 | inconclusive: 0.794 µM [activator, full curve, poor fit] |  |
| O=C(Nc1ccc(Oc2ccccc2)cc1)C1CCCO1 (configuration not stated) | inconclusive: 11.2 µM [activator, partial curve, poor fit] |  |
| O=C(Nc1nnc(Cc2ccccc2)s1)c1cccs1 | inconclusive: 12.6 µM [activator, partial curve, poor fit] |  |
| Cc1ccc(-n2nnc(-c3ccnc4ccccc34)n2)cc1 | inconclusive: 10 µM [activator, partial curve, poor fit] |  |
| Cc1ccc(NC(=O)c2cc3c(s2)CCCC3)cc1 | inconclusive: 2.51 µM [activator, partial curve, poor fit] |  |
| NS(=O)(=O)c1ccc(NC(=S)Nc2ccc(OCc3ccccc3)cc2)cc1 | inconclusive: 35.5 µM [activator, single point] |  |
| CN(c1ncc(C(F)(F)F)cc1Cl)N1C(=O)c2cccc(N)c2C1=O | inactive |  |
| COc1ccc(-c2ccc(-c3nnn(CC(=O)N4CCOCC4)n3)cc2)cc1 | active: 1.41 µM |  |
| CCOC(=O)C1=C(CS(=O)(=O)c2ccc(C(C)(C)C)cc2)NC(=O)NC1c1cccc(OC)c1 (configuration not stated) | inactive |  |
